From patent US6703347B2, “Isothiazole derivatives and their use as pesticides” (Syngenta Limited, priority 2000, dated 2004) come the findings set out here.

The structures appear in SMILES notation. Where only a bound is given, the exact number is not on record here.

The subject of this data set is root knot nematodes (Meloidogyne incognita). The data set is described as follows: whole plant or invertebrate. To be noted: for mortality (score) Mi: 12.5 ppm by weight, in vitro, no SYNPERONIC NP8; for mortality at 12.5 ppm: Meloidogyne incognita, read-out: mortality (score) Mi. An excerpt:
SYNPERONIC is a registered trade mark.

For `CCc1nsc(NC(=O)C(C)c2ccc3oc(CC(C)C)nc3c2)c1Cl` (stereo not shown) [Table 1 Compound 86], the “mortality (score) Mi” value was 0 (represents less than 40% mortality).

`Cc1nsc(NC(=O)C(O)c2ccc3oc(CC(C)(C)C)nc3c2)c1Cl` (stereo not shown) [Table 7 Compound 7]: the “mortality (score) Mi” value is given as 9 (9 indicates 80-100% mortality).

In the case of `CCOCN(C(=O)C(C)c1ccc2oc(C(F)(F)C(F)(F)C(F)(F)F)nc2c1)c1snc(CC)c1Cl` (stereo not shown) [Table 1 Compound 160], the “mortality (score) Mi” value was 0 (represents less than 40% mortality).

As for `CCOCN(C(=O)CCc1ccc2oc(CC(C)(C)C)nc2c1)c1snc(C)c1Cl` [Table 82 Compound 77], the “mortality (score) Mi” value is 0 (represents less than 40% mortality).

As to `CCc1nsc(NC(=O)C(C)c2ccc3oc(CC(F)(F)F)nc3c2)c1Cl` (stereo not shown) [Table 1 Compound 88], the “mortality (score) Mi” value was 0 (represents less than 40% mortality).

With `Cc1nsc(NC(=O)C(F)c2ccc3oc(CC(C)C)nc3c2)c1Cl` (stereo not shown) [Table 5 Compound 6], the “mortality (score) Mi” value is given as 9 (9 indicates 80-100% mortality).

As to `Cc1nsc(NC(=O)C(=CO)c2ccc3oc(CC(C)(C)C)nc3c2)c1Cl` [Table 12 Compound 7], the “mortality (score) Mi” value was 0 (represents less than 40% mortality).

Take `Cc1nsc(NC(=O)C(CC#N)c2ccc3oc(CC(C)(C)C)nc3c2)c1Cl` (stereo not shown) [Table 20 Compound 7]: the “mortality (score) Mi” value is listed as 0 (represents less than 40% mortality).

As for `Cc1nsc(NC(=O)C(C)(F)c2ccc3oc(CC(C)(C)C)nc3c2)c1Cl` (stereo not shown) [Table 6 Compound 7, N-(4-chloro-3-methylisothiazol-5-yl)-2-[2-(2,2-dimethylpropyl)benzoxazol-5-yl]-2-fluoropropionamide], the mortality at 12.5 ppm was under 40%.

Turning to `CCOCN(C(=O)/C=C/c1ccc2oc(CC(C)(C)C)nc2c1)c1snc(C)c1Cl` [Table 81 Compound 77], the “mortality (score) Mi” value is listed as 0 (represents less than 40% mortality).

Turning to `CCOCN(C(=O)C(C)c1ccc2oc(C(F)(F)C(F)(F)C(F)(F)F)nc2c1)c1snc(C)c1Cl` (stereo not shown) [Table 1 Compound 80], the “mortality (score) Mi” value is listed as 0 (represents less than 40% mortality).

Turning to `CCc1nsc(NC(=O)C(C)c2ccc3oc(C(F)(F)C(F)(F)C(F)(F)F)nc3c2)c1Cl` (stereo not shown) [Table 1 Compound 90], the “mortality (score) Mi” value was 0 (represents less than 40% mortality).

Consider `CCc1nsc(NC(=O)C(C)c2ccc3oc(CC(C)(C)C)nc3c2)c1Cl` (stereo not shown) [Table 1 Compound 87], for which the “mortality (score) Mi” value is 0 (represents less than 40% mortality).

Turning to `Cc1nsc(NC(=O)C(C)c2ccc3oc(CC(F)(F)F)nc3c2)c1Cl` (stereo not shown) [Table 1 Compound 8, N-(4-chloro-3-methylisothiazol-5-yl)-2-[2-(2,2,2-trifluoroethyl)benzoxazol-5-yl]propionamide], the mortality at 12.5 ppm was under 40%.

For `CC(=O)OCC(C(=O)Nc1snc(C)c1Cl)c1ccc2oc(CC(C)(C)C)nc2c1` (stereo not shown) [Table 28 Compound 7], the “mortality (score) Mi” value was 0 (represents less than 40% mortality).

For the molecule `CCOCN(C(=O)C(C)c1ccc2oc(CC(C)(C)C)nc2c1)c1snc(C)c1Cl` (stereo not shown) [Table 1 Compound 77], the “mortality (score) Mi” value is listed as 0 (represents less than 40% mortality).

Regarding `CCc1nsc(NC(=O)C(F)c2ccc3sc(CC(C)(C)C)nc3c2)c1Cl` (stereo not shown) [Table 42 Compound 87], the “mortality (score) Mi” value is reported as 0 (represents less than 40% mortality).

Turning to `CCOCN(C(=O)C(C)c1ccc2oc(CC(F)(F)F)nc2c1)c1snc(C)c1Cl` (stereo not shown) [Table 1 Compound 78], the “mortality (score) Mi” value is given as 0 (represents less than 40% mortality).

As for `Cc1nsc(NC(=O)C(C)c2ccc3oc(CC(C)C)nc3c2)c1Cl` (stereo not shown) [Table 1 Compound 6], the “mortality (score) Mi” value is recorded as 0 (represents less than 40% mortality).

In the case of `CCc1nsc(NC(=O)C(CC)c2ccc3oc(C(F)(F)C(F)(F)C(F)(F)F)nc3c2)c1Cl` (stereo not shown) [Table 2 Compound 90], the “mortality (score) Mi” value is listed as 0 (represents less than 40% mortality).

Consider `Cc1nsc(NC(=O)C(=O)c2ccc3oc(CC(C)(C)C)nc3c2)c1Cl` [Table 10 Compound 7], for which the “mortality (score) Mi” value is on record as 0 (represents less than 40% mortality).

On to `CCc1nsc(NC(=O)C(F)c2ccc3oc(C(F)(F)C(F)(F)C(F)(F)F)nc3c2)c1Cl` (stereo not shown) [Table 5 Compound 90], for which the “mortality (score) Mi” value was 0 (represents less than 40% mortality).

Take `CCOCN(C(=O)C(C)c1ccc2oc(CC(C)C)nc2c1)c1snc(C)c1Cl` (stereo not shown) [Table 1 Compound 76]: the “mortality (score) Mi” value is reported as 5 (5 indicates 40-79% mortality).

Consider `CCC(C(=O)Nc1snc(C)c1Cl)c1ccc2oc(C(F)(F)C(F)(F)C(F)(F)F)nc2c1` (stereo not shown) [Table 2 Compound 10], for which the “mortality (score) Mi” value is 0 (represents less than 40% mortality).

Regarding `CCc1nsc(NC(=O)C(C)c2ccc3sc(CC(C)(C)C)nc3c2)c1Cl` (stereo not shown) [Table 39 Compound 87], the “mortality (score) Mi” value was 0 (represents less than 40% mortality).

`CCc1nsc(NC(=O)C(OC)c2ccc3oc(CC(C)C)nc3c2)c1Cl` (stereo not shown) [Table 9 Compound 86]: the “mortality (score) Mi” value is recorded as 5 (5 indicates 40-79% mortality).

For `Cc1nsc(NC(=O)C(F)c2ccc3sc(CC(C)(C)C)nc3c2)c1Cl` (stereo not shown) [Table 42 Compound 7], the “mortality (score) Mi” value is reported as 0 (represents less than 40% mortality).

`CCOCN(C(=O)C(F)c1ccc2oc(C(F)(F)C(F)(F)C(F)(F)F)nc2c1)c1snc(CC)c1Cl` (stereo not shown) [Table 5 Compound 160]: the “mortality (score) Mi” value is 0 (represents less than 40% mortality).

In the case of `Cc1nsc(NC(=O)C(F)c2ccc3oc(C(F)(F)C(F)(F)C(F)(F)F)nc3c2)c1Cl` (stereo not shown) [Table 5 Compound 10], the “mortality (score) Mi” value is given as 0 (represents less than 40% mortality).

On to `CCOCN(C(=O)C(C)c1ccc2oc(CC(C)(C)C)nc2c1)c1snc(CC)c1Cl` (stereo not shown) [Table 1 Compound 157], for which the “mortality (score) Mi” value was 0 (represents less than 40% mortality).

Regarding `CCOCN(C(=O)C(C)c1ccc2oc(C(F)(F)C(F)(F)F)nc2c1)c1snc(CC)c1Cl` (stereo not shown) [Table 1 Compound 159], the “mortality (score) Mi” value is given as 0 (represents less than 40% mortality).

`CCOCN(C(=O)C(C)c1ccc2oc(CC(C)C)nc2c1)c1snc(CC)c1Cl` (stereo not shown) [Table 1 Compound 156]: the “mortality (score) Mi” value is 0 (represents less than 40% mortality).

As to `CCOCN(C(=O)C(F)c1ccc2oc(CC(C)(C)C)nc2c1)c1snc(C)c1Cl` (stereo not shown) [Table 5 Compound 77], the “mortality (score) Mi” value is on record as 0 (represents less than 40% mortality).

With `CCc1nsc(NC(=O)C(C)c2ccc3oc(C)nc3c2)c1Cl` (stereo not shown) [Table 1 Compound 81], the “mortality (score) Mi” value is 0 (represents less than 40% mortality).

Usually mortality stands for the percentage killed.
